# Assay results: PMC4336329 (PLoS ONE, 2015)
# Screen size: about 310,000 compounds; about 2,200 (0.71%) showed an effect of 50% or more. Effects have a minus sign here. The list shows a part of the results.
# Target: human ether-à-go-go-related gene (hERG) potassium channel (human, UniProt Q12809)
# Experiment: primary screen, population patch clamp on CHO cells stably expressing hERG
# human ether-à-go-go-related gene (hERG) potassium channel, sequence (Q12809 whole entry, looked up): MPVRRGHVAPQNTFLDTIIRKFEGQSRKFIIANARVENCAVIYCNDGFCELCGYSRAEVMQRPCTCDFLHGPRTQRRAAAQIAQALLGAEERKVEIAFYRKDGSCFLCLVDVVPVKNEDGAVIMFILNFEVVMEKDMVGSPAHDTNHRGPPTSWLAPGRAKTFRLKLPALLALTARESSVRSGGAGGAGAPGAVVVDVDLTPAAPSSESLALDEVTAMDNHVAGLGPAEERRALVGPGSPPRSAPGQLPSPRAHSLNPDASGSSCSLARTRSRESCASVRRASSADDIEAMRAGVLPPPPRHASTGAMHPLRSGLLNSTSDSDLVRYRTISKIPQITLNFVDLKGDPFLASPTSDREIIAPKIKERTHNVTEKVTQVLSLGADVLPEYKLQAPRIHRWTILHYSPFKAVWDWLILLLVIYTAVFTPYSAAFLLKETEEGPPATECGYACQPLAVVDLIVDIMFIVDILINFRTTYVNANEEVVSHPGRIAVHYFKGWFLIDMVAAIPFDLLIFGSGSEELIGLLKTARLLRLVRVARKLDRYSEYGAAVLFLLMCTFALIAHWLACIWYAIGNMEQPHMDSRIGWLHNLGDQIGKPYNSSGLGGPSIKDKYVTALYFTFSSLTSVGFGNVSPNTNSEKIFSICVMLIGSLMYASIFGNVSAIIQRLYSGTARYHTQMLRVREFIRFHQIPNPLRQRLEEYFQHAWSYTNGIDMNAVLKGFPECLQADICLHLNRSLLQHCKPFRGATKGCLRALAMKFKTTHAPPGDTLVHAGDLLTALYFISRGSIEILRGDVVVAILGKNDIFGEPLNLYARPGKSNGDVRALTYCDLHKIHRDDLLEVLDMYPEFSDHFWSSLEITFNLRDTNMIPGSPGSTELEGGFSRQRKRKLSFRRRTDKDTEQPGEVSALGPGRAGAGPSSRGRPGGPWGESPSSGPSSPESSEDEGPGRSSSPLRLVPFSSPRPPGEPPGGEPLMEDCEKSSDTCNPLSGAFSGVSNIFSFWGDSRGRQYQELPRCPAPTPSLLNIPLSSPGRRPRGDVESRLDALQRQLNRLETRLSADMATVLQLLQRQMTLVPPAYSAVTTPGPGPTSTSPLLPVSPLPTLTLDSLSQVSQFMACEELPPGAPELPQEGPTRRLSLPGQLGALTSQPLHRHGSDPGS
row,Compound,"hERG current change (%, negative = inhibition) at 1uM [%]"
1,CCOC(=O)C1=NNC2C(=O)N(C3CCCCC3)C(=O)C12 (stereo not drawn),10.7
2,O=C(NC1CCSc2ccccc21)c1ccc([N+](=O)[O-])cc1 (stereo not drawn),-6.81
3,CCOc1cc(C(=O)NC(C)CC)cc(OCC)c1OCC (stereo not drawn),13.9
4,COc1cccc(OP(=O)(Nc2ccccc2)Oc2cccc(OC)c2)c1,10.4
5,Cc1ccc(CNC(=O)/C=C/C(=O)O)cc1,-7.48
6,CCCN1CCN(C(=O)C2CCCN(c3ncnc4c3nc3n4CCCCC3)C2)CC1 (stereo not drawn),0.737
7,COc1ccc(N2CCN(C(=O)C(C)(C)Oc3ccc(Cl)cc3)CC2)cc1,13.9
8,CN=C1S/C(=C\c2ccc(N3CCCC3)c(F)c2)C(=O)N1C,9.3
9,O=C(NCC(c1cccnc1)N1CCOCC1)c1cccc(Cl)c1 (stereo not drawn),-0.744
10,Cc1cc(=O)oc2cc(NC(=O)COc3cccc(C(F)(F)F)c3)ccc12,11.3
11,Cc1cc(NC(=O)c2cc(-c3ccccn3)nc3c(Cl)cccc23)no1,-8.24
12,CON1C(=O)C(=O)N(OC)C2CCCCCC21 (stereo not drawn),11.7
13,O=C(c1ccc(Cl)c(S(=O)(=O)N2CCCCC2)c1)N1CCN(c2ccccc2)CC1,3.46
14,CC1=C(n2ccnc2)CCC1=O,13.6
15,Cc1onc(-c2ccccc2)c1C(=O)N1CCC2(CC1)OCCO2,11.1
16,CCc1nc(SCc2nnc(-c3ccc(C)cc3)o2)c2c(C)c(C)sc2n1,16.4
17,CCCCNC(=O)C1CC(c2cccc(F)c2)=NO1 (stereo not drawn),9.48
18,CCOC(=O)C1CCCc2c1[nH]c1ccc(Cl)cc21 (stereo not drawn),19
19,O=C(COc1ccc2ccc(=O)oc2c1)Nc1nccs1,2.46

row,Compound,"hERG current change (%, negative = inhibition) at 1uM [%]"
1,Cc1ccc(N(C(=O)C(F)(F)F)C(C(=O)NC2CCCCC2)c2ccncc2)cc1C (stereo not drawn),15.4
2,CCOC(=O)C(C(=O)Nc1nccs1)C1CCCCC1 (stereo not drawn),10.9
3,CC(C)[C@H](NS(=O)(=O)c1ccccc1)C(=O)OCC(=O)N1N=C(c2ccc(Cl)cc2)CC1c1ccco1 (stereo partly drawn),2.31
4,Cc1cc(C(=O)OCC(=O)NCc2cccs2)c2ccccc2n1,-1.53
5,OC(CNCc1ccco1)Cn1c2ccc(Br)cc2c2cc(Br)ccc21 (stereo not drawn),5.56
6,CC(C)c1nc2cc(C(=O)N(C)Cc3ccc(F)cc3)ccc2o1,10.7
7,CC(NC(=O)c1cc2c(=O)n(C)c3ccccc3c2n1C)c1ccc2c(c1)OCCO2 (stereo not drawn),12.7
8,COc1cccc(/C=N/n2c(-c3cc(C)[nH]n3)n[nH]c2=S)c1,9.14
9,COC(=O)C1=C(c2ccc(S(C)(=O)=O)cc2)C[C@@H]2CC[C@H]1N2C(=O)NCCO,10.3
10,CCCSc1nnc(N2C(=O)CC(c3ccsc3)C3=C2CCCC3=O)s1 (stereo not drawn),8.25
11,CCOC(=O)/C=C/c1ccccc1S(=O)(=O)NC(C)(C)C,-0.729
12,Cc1ccc(S(=O)(=O)N2CCN(C(=O)CCOc3cc(C)ccc3C)CC2)cc1,3.36
13,COc1ccc(NC(=O)Cn2nnc(C(=O)Nc3ccc(F)c(Cl)c3)c2N)cc1OC,5.08
14,N#CC1=C(SCc2ccccc2)NC2=C(C(=O)CCC2)C1c1ccc2c(c1)OCO2 (stereo not drawn),8.23
15,O=C(Nc1nccs1)c1csc2c1CCCC2,10.7
16,CCOc1ccc(S(=O)(=O)N2CCCC(C(=O)NC3CCCC3)C2)cc1 (stereo not drawn),-2.67
17,O=C(COC(=O)C1CCC1)NCCc1ccc(Cl)cc1Cl,16.5
18,COC(=O)CNC(=O)C1Cc2ccccc2CN1S(=O)(=O)c1ccc(F)cc1 (stereo not drawn),8.86
19,Cn1c(=O)[nH]c(=O)c2c1nc(OC(=O)c1ccccc1)n2CC(O)COc1ccccc1 (stereo not drawn),11.2

row,Compound,"hERG current change (%, negative = inhibition) at 1uM [%]"
1,Cc1nc2ccccn2c1C(=O)NN=C1CCCC1,-1.75
2,Cc1cccc(N2CCN(C(=O)CS(=O)(=O)Cc3nc(-c4ccccc4F)oc3C)CC2C)c1 (stereo not drawn),-2.75
3,O=C(c1cc2ccccc2o1)N1CCN(S(=O)(=O)c2c(F)cccc2F)CC1,8.28
4,CCN(CC)c1ccc(/C=C/[N+](=O)[O-])cc1,3.74
5,COc1cccc(OCc2cc(C(=O)N(Cc3nccn3C)C(C)C)no2)c1,12.8
6,C=C(C)COc1ccc(-c2ncncc2-c2ccc(Cl)cc2)c(O)c1,10.1
7,Cc1[nH]n(-c2ccccc2)c(=O)c1/C=N/O,0.784
8,CN(C)CCNC(=O)CNC(=S)N(CCCN1CCOCC1)Cc1cccs1,14.7
9,O=C(Nc1ccc(Cl)c(Cl)c1)N1CCSC1c1ccco1 (stereo not drawn),11
10,O=C(COC(=O)c1cc([N+](=O)[O-])ccc1N1CCOCC1)Nc1cc(F)ccc1F,-5.03
11,O=C(NCCn1cc(SCc2ccc(F)cc2)c2ccccc21)c1ccccc1F,5.36
12,CCOC(=O)C1CCN(C(=O)c2cc(S(=O)(=O)N3CCCCC3)ccc2C)CC1,5.91
13,Cc1nc2ccccc2n1-c1nc(-c2ccco2)cc(C(F)(F)F)n1,6.45
14,O=C(OCc1cc(=O)n2c(n1)sc1ccccc12)c1cccc(O)c1,-2.02
15,COc1cccc(C(=O)NNC(=O)C(=O)Nc2ccc(C)c(Cl)c2)c1,9.18
16,COc1cc(NCCCCCCCN)c2ncccc2c1.O=C(O)CCC(=O)O,10.5
17,Cc1ccc(S(=O)(=O)c2nc(-c3ccccc3)oc2N2CCCC2)cc1,14.1
18,Cc1nc(-c2ccc(Cl)cc2)sc1C(=O)NNC(=O)C(C)C,13.2
19,CCNC(=O)c1c(O)c2ccccc2[nH]c1=O,5.46
